This is an account of results in US20170306038A1, “COMPOSITIONS AND METHODS OF USE FOR AUGMENTED IMMUNE RESPONSE AND CANCER THERAPY” (priority 2014, published 2017).

Test [1] concerns cyno CD4+ Tcells. Nature of the test: FACS binding to isolated cyno PBMCs. The arrangement: species or system cynomolgus. The following applies: FACS of isolated PBMCs. The method, then:
Cynomolgus monkey PBMCs were prepared and GITR binding determined using MABs. Briefly, cynomolgus blood was transferred into 50 mL conical tubes (Falcon, #352098), then diluted 1:2 in PBS (HyClone, #SH30256.01) and mixed. Diluted blood was carefully layered on top of 18 mL of 90% Ficoll Paque PLUS (GE Healthcare #17-1440-03 diluted in PBS), and tubes were spun at 2,000×g in a bench top centrifuge for 30 minutes at room temperature, with no brake. The plasma layer was carefully removed without disturbing the diffuse PBMC layer on top of the Ficoll. PBMCs were then carefully harvested and PBS was added to the isolated PBMCs until the volume in the conical tube was 45 mL, mixed, and then spun at 300×g in a bench top centrifuge for 15 minutes at room temperature. Supernatant was carefully aspirated and 4 mL of 1×BD Lysing solution (BD #555899) was added and the samples were gently vortexed. […]
Plates were prepared with cells resuspended in 200 μL of cold PBS. […] Plates were covered with foil (Beckman Coulter, #538619) and stored at 4° C. until ready to read. On the day of FACS read the plate was spun in a bench top centrifuge at 3,200 RPM for 1 minute and 50 μL of CML latex beads (Life Technologies #C37259), 4×10^5/mL in FACS Buffer, was added to each well. The plates were read on a BD Fortessa flow cytometer and data analyzed using FlowJo.
A general note: In flow cytometry, cells or beads pass a laser one at a time.

For test [2], the system named is cynomolgus GITR. Nature of the test: ELISA binding to GITR extracellular domain, cyno. The method, then: Binding of the MABs to GITR from various species, various alanine mutant constructs or GITR extracellular domain—was assessed using a 384-well plate was coated with rat, mouse, human or cyno GITR extracellular domain (ECD) at 50 ng per well and incubated overnight at 4° C. The plate was blocked with a solution of 1% BSA in PBS for one hour at room temperature and then rinsed three times with PBST. The MAB was then diluted to 0.5 μg/mL or 1 μg/mL in PBS and 20 μL was added to each well. The plate was incubated for 1 hour at room temperature and then washed three times with PBST. Anti-human kappa antibody (Sigma #A7164), anti-human gamma antibody (Jackson Immunoresearch 109-036-098), goat anti-mouse antibody (Jackson ImmunoResearch 115-035-071) conjugated to HRP was diluted 1:5000 in Blocking Buffer (25 μL) and added to each well, or a hrp conjugated HIS antibody (QIAGEN 1014992) diluted 1:1000 in Blocking Buffer was added. The plate was incubated for 1 hour at room temperature, and then washed six times with PBST. 25 μL of SureBlue TMB (KPL 52-00-02) substrate was added to each well and the plate was incubated for about 10 min at room temperature. Plates were read at 650 nm in a spectrophotometer.
For orientation: In an ELISA, binding on a coated surface is turned into a signal by an enzyme label.

The subject of test [3] is human CD4+ Tcells. Kind of test: FACS binding to isolated human PBMCs. Conditions: FACS of isolated PBMCs. The procedure: Plates were prepared with cells resuspended in 200 μL of cold PBS. […] Wash and resuspension in 100 μL of antibody cocktail (PerCP Cγ5.5 anti-human CD3 (BD #552852), Alexa Fluor 700 anti-human CD4 (BD #560836), V450 anti-human CD8 (BD #561426), PE-Cγ7 anti-human CD25 (BD #561405) and PE anti-human in FACS Buffer (Jackson Immuno #109-116-098)) followed and plates were then incubated for 30 minutes on ice protected from light and then spun in a bench top centrifuge at 3,200 RPM for 1 minute at 4° C. Cells were washed in FACS Buffer then resuspended in 100 μL of BD CytoFix (BD #554655) and plates were incubated for 15 minutes at room temperature protected from light then washed twice and resuspended in 100 μL of FACS Buffer. Plates were covered with foil (Beckman Coulter, #538619) and stored at 4° C. until ready to read. On the day of FACS read the plate was spun in a bench top centrifuge at 3,200 RPM for 1 minute and 50 μL of CML latex beads (Life Technologies #C37259), 4×10^5/mL in FACS Buffer, was added to each well. The plates were read on a BD Fortessa flow cytometer and data analyzed using FlowJo.

B1: MAB7: MAB4 variant with glycation site KH changed to RH; heavy chain SEQ ID NO:100, light chain SEQ ID NO:66 (antibody)
heavy: EVQLVESGGGLVQSGGSLRLSCAASGFSLSSYGVDWVRQAPGKGLEWVGVIWGGGGTYYASSLMGRFTISRDNSKNTLYLQMNSLRAEDTAVYYCARHAYGHDGGFAMDYWGQGTLVTVSSASTKGPSVFPLAPSSKSTSGGTAALGCLVKDYFPEPVTVSWNSGALTSGVHTFPAVLQSSGLYSLSSVVTVPSSSLGTQTYICNVNHKPSNTKVDKRV[human IgG1 Fc not printed]
light: EIVMTQSPATLSVSPGERATLSCRASESVSSNVAWYQQRPGQAPRLLIYGASNRATGIPARFSGSGSGTDFTLTISRLEPEDFAVYYCGQSYSYPFTFGQGTKLEIKRTVAAPSVFIFPPSDEQLKSGTASVVCLLNNFYPREAKVQWKVDNALQSGNSQESVTEQDSKDSTYSLSSTLTLSKADYEKHKVYACEVTHQGLSSPVTKSFNRGEC
B1: the “binding to cyno CD4+ Tcells” value in test [1] is reported as “binds”. For the same molecule, the “binding to cynomolgus GITR in ELISA” value in test [2] was “binding human and cyno GITR”. Moreover, in test [3], the “binding to human CD4+ Tcells” value is “binds”.
